Experimental data: patent US8470556B2, “Nucleic acids that encode antigen binding proteins that bind PAR-2” (Amgen Inc., priority 2007, dated 2013)

T1: PAR-2 (Homo sapiens, UniProt P55085)
T1 sequence (P55085 26-397): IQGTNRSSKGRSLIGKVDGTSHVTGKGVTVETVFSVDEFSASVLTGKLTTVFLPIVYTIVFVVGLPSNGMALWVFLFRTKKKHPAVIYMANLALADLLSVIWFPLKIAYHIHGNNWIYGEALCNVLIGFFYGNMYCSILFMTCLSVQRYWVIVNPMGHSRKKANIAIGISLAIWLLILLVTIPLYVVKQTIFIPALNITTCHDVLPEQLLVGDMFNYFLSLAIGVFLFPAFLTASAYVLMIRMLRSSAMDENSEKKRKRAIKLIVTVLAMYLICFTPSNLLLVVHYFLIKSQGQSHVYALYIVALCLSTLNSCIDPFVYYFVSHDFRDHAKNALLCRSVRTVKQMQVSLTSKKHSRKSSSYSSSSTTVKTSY


Legend:
PAR-2 = molecular target: T1, PAR-2; assay: FLIPR assay for Ca2+ mobilization; format: cell-based
From the text: Hybridoma clones thus generated are screened for reactivity with PAR-2. Initial screening of hybridoma supernatants may utilize a peptide ELISA, a whole cell ELISA and/or a cell-based assay suitable for high-throughput screening (fluorometric microvolume assay technology or FMAT, substantially as described by Fiscella, et al., Nature Biotechnology 21:302-307; 2003). Hybridomas that are positive in this screening method may be further cultured to provide larger amounts of antibody, which can then be purified as described below and screened by additional cell-based assay(s) (for example, a flash plate assay using cells co-expressing apoaequorin, a Ca2+-sensitive photoprotein, substantially as described by Le Poul et al., J. Biomol. Screen. 7(1):57-65; 2002, and PAR-2), or a fluorometric imaging plate reader (FLIPR) assay, which is used to determine changes in intracellular Ca2+ levels, substantially as described in S. Pitchford, Genetic Engineering News vol. 18, Number 15 (1998) and/or Sullivan et al., Methods in Molecular Biology vol. […]
Several PAR-2 antibodies were tested in different assay formats; Table 2 summarizes the results. IC50 values were determined in a FLIPR assay for Ca2+ mobilization described previously; binding to the upstream region of the cleavage site versus the downstream region of the cleavage site was determined using the Western blot assay described previously.

[1] = molecular target: T2, N-terminal PAR-2/Fc (full length and truncated) (Homo sapiens, UniProt P55085); assay: Western blot, binding to uncleaved versus clipped N-terminal PAR-2/Fc; details: downstream binder binds both full length and truncated PAR-2-Fc
T2 construct: made in house; host or cells: CHO cells (10% FCS for uncleaved; serum-free for clipped)
From the text: N-terminal PAR-2/Fc polypeptide (SEQ ID NO:6) is expressed in suitable mammalian cells such as CHO cells. Expression supernatant from CHO expression cells cultured in serum-free media contain a CHO cell trypsin-like serine protease that cleaves PAR-2/Fc at the activation Arg-Ser bond, generating the “clipped” version of the PAR-2/Fc polypeptide. CHO expression cells cultured in 10% fetal calf serum (which contains normal levels of plasma proteinase inhibitors at concentrations far in excess of the concentration of the CHO cell trypsin-like serine protease) express uncleaved N-terminal PAR-2/Fc in culture supernatants. […] The resultant purified Fc-constructs are analyzed by amino terminal sequence analysis (Edman degradation), size exclusion chromatrography, absorbance spectral scan, and mass spectroscopy, as needed.
To analyze binding to uncleaved versus cleaved PAR-2, various amounts of purified uncleaved and clipped N-terminal PAR2-Fc are subjected to SDS-PAGE using 8-16% polyacrylamide gradient gels (Novex gels, Invitrogen Life Technologies) in a Tris-Glycine buffer system. […] Antibodies to be analyzed are diluted in 1:1 OBB:TBS at a desired final concentration for 1 hr at room temperature. […] Membranes are washed as described above, and if desired, analyzed using a LI-COR Odyssey Infrared Imaging System (LI-COR Biosciences). […]

T2 sequence (P55085 with tags, fused parts or gaps limits assumed): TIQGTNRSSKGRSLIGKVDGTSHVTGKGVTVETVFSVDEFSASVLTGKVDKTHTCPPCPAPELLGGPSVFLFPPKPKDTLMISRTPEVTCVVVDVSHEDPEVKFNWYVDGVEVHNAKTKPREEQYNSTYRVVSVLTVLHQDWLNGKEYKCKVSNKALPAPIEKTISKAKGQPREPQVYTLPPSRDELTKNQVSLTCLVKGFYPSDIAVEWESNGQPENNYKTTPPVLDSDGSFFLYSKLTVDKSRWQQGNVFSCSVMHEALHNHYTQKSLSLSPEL

IC50 (PAR-2) [nM] | Binding to Cleavage Site Down stream [1] | Molecule
> 1000 | xx | 12D5: anti-PAR-2 monoclonal antibody; heavy SEQ ID NO: 31, light SEQ ID NO: 33 (antibody, listed as Homo sapiens, V domains shown) VH: QVQLQQSGPGLVKPSQTLSLTCAISGDSVSSNRAAWNWIRQSPSRGLEWLGRTYYRSKWYNDFAVSVRSRITITPDTSKNQFSLQLNSVTPEDTAVYYCARDRNSGYYYYGLDVWGQGTTVTVSS VL: KIVMTQSPATLSVSPGERATLSCRASQSVSNNLAWYQQKPGQAPRLLIYGASTRATGIPARFSGSGSGTEFTLTITSLQSEDFAVYYCQQYNNWPLTFGGGTKVEIK
> 1000 | xx | 13F2: anti-PAR-2 monoclonal antibody; heavy SEQ ID NO: 35, light SEQ ID NO: 37 (antibody, listed as Homo sapiens, V domains shown) VH: QVQLQQSGPGLVKPSQTLSLTCAISGDSVSSNRAAWNWIRQSPSRGLEWLGRTYYRSKWYNDHAVSVKSRITITPDTSKNQFSLQLNSVTPEDKAVYYCARDRNSGYYYYGLDVWGQGTTVTVSS VL: EIVMTQSPATLSVSPGERATLSCRASQSVSNNLAWYQQKPGQAPRLLIYGASTRATGIPARFSGSGSGTEFTLTITSLQSEDFAVYYCQQYNNWPLTFGGGTKVEIK
